A collection of fitness landscapes (doi:10.1016/j.celrep.2020.107928)
In all, about 81,000 sequences were measured (“one-hybrid fitness for binding NBS DNA”: median about -0.1, highest 2% from about 0.36 on). The list shows a part of the results.

B1: Caulobacter ParB omega fusion; a variant is named by its letters at X, in order, B8GW30 (parent)
chain: MESVVVGEPGMSEGRRGLGRGLSALLGEVDAAPAQAPGEQLGGSREAPIEILQRNPDQPRRTFREEDLEDLSNSIREKGVLQPILVRPSPDTAGEYQIVAGERAWRAAQRAGLKTVPIMVRELDDLAVLEIGIIENVQRADLNVLEEALSYKVLMEKFERTQENIAQTIGKSXSHVANXMRLLXLPDEVQSYLVSGELTAXHARAIAAAADPVALAKQIIEGGLSVRETEALARKAPNLSAGKSKGGRPPRVKDTDTQALESDLSSVLGLDVSIDHRGSTGTLTITYATLEQLDDLCNRLTRGI

Variants of: B1
Experiment: one-hybrid fitness for binding NBS DNA (the Noc-binding site; scaled: cognate 1, non-cognate 0); higher = stronger binding
Conditions: with NBS DNA site
Procedure, shortened: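 The reporter was HIS3, with the binding site 19 bp from the promoter, in E. coli USO used for bacterial one-hybrid selection of Caulobacter ParB libraries with four specificity codons randomised. Growth was on M9 lacking histidine, with 0.1 mM IPTG and 5 mM 3-AT, for 48 hours at 37°C. Illumina sequencing covered plasmids before and after selection; three replicate libraries were pooled and variants with under 10 reads dropped. A fitness score is the log change in variant-to-wild-type read ratio, rescaled to the cognate and non-cognate references.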

Variant	one-hybrid fitness for binding NBS DNA
SGSI	≤ 0.2
YADG	≤ 0.2
RSKQ	≤ 0.2
QRNT	0.822
TDEG	≤ 0.2
TALI	≤ 0.2
TKRD	≤ 0.2
QWLM	≤ 0.2
HKMS	≤ 0.2
NNRL	≤ 0.2
VTQD	≤ 0.2
MAKS	≤ 0.2
PQAY	≤ 0.2
LVKL	≤ 0.2
PNYP	≤ 0.2
HINT	≤ 0.2
SNMV	≤ 0.2
SKMD	≤ 0.2
CDCF	≤ 0.2
TVYA	≤ 0.2
ILMC	≤ 0.2
YRQH	≤ 0.2
LQEA	≤ 0.2
GTCL	≤ 0.2

Variant	one-hybrid fitness for binding NBS DNA
EVIT	≤ 0.2
TSTS	≤ 0.2
MFSR	≤ 0.2
HRQQ	≤ 0.2
NSVL	≤ 0.2
TRAI	≤ 0.2
RRGF	≤ 0.2
GSYT	≤ 0.2
ARIS	≤ 0.2
SLPP	≤ 0.2
CRIA	≤ 0.2
QKLC	≤ 0.2
VTSG	≤ 0.2
LCIS	≤ 0.2
RYFK	≤ 0.2
DAVC	≤ 0.2
VDWP	≤ 0.2
RKYH	0.228
GRDW	≤ 0.2
WEKT	≤ 0.2
ALHP	≤ 0.2
RPTQ	≤ 0.2
GLGR	≤ 0.2
YRKW	≤ 0.2

Variant	one-hybrid fitness for binding NBS DNA
HNGV	≤ 0.2
LRKF	≤ 0.2
PRIG	≤ 0.2
SPDR	≤ 0.2
YNNF	≤ 0.2
RPIE	≤ 0.2
RNKT	0.46
TTLS	≤ 0.2
NSKR	≤ 0.2
NDID	≤ 0.2
STVC	≤ 0.2
IIDE	≤ 0.2
YSRD	≤ 0.2
GAKP	≤ 0.2
PVSI	≤ 0.2
RKDP	≤ 0.2
RCVW	≤ 0.2
YSDN	≤ 0.2
IWCG	≤ 0.2
RLQY	≤ 0.2
RINE	≤ 0.2
VDAM	≤ 0.2
TDTK	≤ 0.2
NTRC	≤ 0.2

Variant	one-hybrid fitness for binding NBS DNA
LFVI	≤ 0.2
RESH	≤ 0.2
ATEI	≤ 0.2
QQYR	0.578
VYGC	≤ 0.2
CMSI	≤ 0.2
FMYS	≤ 0.2
FGGA	≤ 0.2
VLSC	≤ 0.2
PAHF	≤ 0.2
RFCM	≤ 0.2
VKQR	≤ 0.2
SILR	≤ 0.2
THYY	≤ 0.2
SPWG	≤ 0.2
ARNV	≤ 0.2
DLVM	≤ 0.2
QCSM	≤ 0.2
SVLV	≤ 0.2
LYRC	≤ 0.2
RQDP	≤ 0.2
ATWE	≤ 0.2
TTTK	≤ 0.2
QLPT	0.207

Variant	one-hybrid fitness for binding NBS DNA
TSVF	≤ 0.2
KTRK	≤ 0.2
AATC	≤ 0.2
TVVD	≤ 0.2
NKIS	≤ 0.2
RPSM	≤ 0.2
GRPY	≤ 0.2
EFNR	≤ 0.2
RHTR	0.459
QFNC	≤ 0.2
HMMC	≤ 0.2
PLGS	≤ 0.2
YAIF	≤ 0.2
RIQH	≤ 0.2
RNKG	≤ 0.2
QCLP	≤ 0.2
YLGN	≤ 0.2
LTCG	≤ 0.2
MKRA	≤ 0.2
KACD	≤ 0.2
QCAG	≤ 0.2
QIAL	≤ 0.2
NAHV	≤ 0.2
NTKM	≤ 0.2

Variant	one-hybrid fitness for binding NBS DNA
GLFD	≤ 0.2
VLWS	≤ 0.2
PGTH	≤ 0.2
NILL	≤ 0.2
FIPM	≤ 0.2
NPQA	≤ 0.2
SQIC	≤ 0.2
RISS	0.358
SHII	≤ 0.2
WRHY	≤ 0.2
DKPS	≤ 0.2
SAGG	≤ 0.2
GIKS	≤ 0.2
ARCA	≤ 0.2
VATT	≤ 0.2
LNRP	≤ 0.2
SGYK	≤ 0.2
SRRN	≤ 0.2
PEKT	≤ 0.2
RPRD	≤ 0.2
KAPC	≤ 0.2
KWCS	≤ 0.2
AFPR	≤ 0.2
GKPV	≤ 0.2

Variant	one-hybrid fitness for binding NBS DNA
HSCA	≤ 0.2
QHNG	≤ 0.2
QFAA	≤ 0.2
TCGL	≤ 0.2
RHEF	≤ 0.2
DETW	≤ 0.2
WCSC	≤ 0.2
RESC	≤ 0.2
HGSM	≤ 0.2
SRPF	≤ 0.2
CRKH	≤ 0.2
CSQR	≤ 0.2
PASK	≤ 0.2
PRVV	≤ 0.2
SQHN	≤ 0.2
KRMR	0.51
YIQG	≤ 0.2
KFGR	≤ 0.2
QYHL	≤ 0.2
QLTN	≤ 0.2
PCSQ	≤ 0.2
IRRQ	≤ 0.2
RLAC	≤ 0.2
WMKS	≤ 0.2

Variant	one-hybrid fitness for binding NBS DNA
HEMV	≤ 0.2
SHGM	≤ 0.2
RREQ	≤ 0.2
SIPE	≤ 0.2
PFNQ	≤ 0.2
PHGM	≤ 0.2
YVMT	≤ 0.2
IVKF	≤ 0.2
CPLS	≤ 0.2
CVLT	≤ 0.2
TCYW	≤ 0.2
LWNT	≤ 0.2
RGLM	≤ 0.2
YRNC	≤ 0.2
PPYN	≤ 0.2
DTQR	≤ 0.2
HHMS	≤ 0.2
ECPS	≤ 0.2
HIFR	≤ 0.2
LRRN	≤ 0.2
GPAI	≤ 0.2
RVKC	0.26
VFMG	≤ 0.2
MPRH	≤ 0.2

Variant	one-hybrid fitness for binding NBS DNA
GWHV	≤ 0.2
PCFT	≤ 0.2
LPSF	≤ 0.2
SPIS	≤ 0.2
CSSG	≤ 0.2
GGWT	≤ 0.2
MTTS	≤ 0.2
ISHG	≤ 0.2
ADMC	≤ 0.2
DISP	≤ 0.2
RILQ	≤ 0.2
PMSA	≤ 0.2
YYSL	≤ 0.2
ETSM	≤ 0.2
ELKR	≤ 0.2
QTHW	0.202
RRYF	≤ 0.2
QLCE	≤ 0.2
VVQN	≤ 0.2
LQNY	≤ 0.2
RKAG	≤ 0.2
LEGS	≤ 0.2
AKGA	≤ 0.2
QPES	≤ 0.2

Variant	one-hybrid fitness for binding NBS DNA
CRMT	≤ 0.2
LVEL	≤ 0.2
HSHD	≤ 0.2
PAAY	≤ 0.2
CSEC	≤ 0.2
AQTA	≤ 0.2
GVNC	≤ 0.2
NGRF	≤ 0.2
SMMC	≤ 0.2
PDTN	≤ 0.2
TCKS	≤ 0.2
RGGP	≤ 0.2
EAQC	≤ 0.2
VYCC	≤ 0.2
AISL	≤ 0.2
ELKT	≤ 0.2
QRSQ	0.434
MFQG	≤ 0.2
YLLY	≤ 0.2
KGKS	≤ 0.2
STKQ	≤ 0.2
KICR	≤ 0.2
FQRA	≤ 0.2
QVRI	≤ 0.2

Variant	one-hybrid fitness for binding NBS DNA
QHAI	≤ 0.2
YKNS	≤ 0.2
TMIL	≤ 0.2
NYSV	≤ 0.2
ALMY	≤ 0.2
SFFG	≤ 0.2
TVDS	≤ 0.2
AMMC	≤ 0.2
PNSS	≤ 0.2
KTTH	≤ 0.2
YAPV	≤ 0.2
THSA	≤ 0.2
KTSS	≤ 0.2
AVNS	≤ 0.2
RNTI	≤ 0.2
WFLT	≤ 0.2
RGAN	≤ 0.2
CDFR	≤ 0.2
PDVL	≤ 0.2
GQQN	≤ 0.2
SAVL	≤ 0.2
VWET	≤ 0.2
YMVG	≤ 0.2
RRCN	0.248

Variant	one-hybrid fitness for binding NBS DNA
GLNR	≤ 0.2
AFDR	≤ 0.2
SVER	≤ 0.2
GEAA	≤ 0.2
TEIT	≤ 0.2
VDPH	≤ 0.2
VQET	≤ 0.2
MYAM	≤ 0.2
LSNP	≤ 0.2
FCAH	≤ 0.2
HSAF	≤ 0.2
VWAC	≤ 0.2
YARL	≤ 0.2
FYGT	≤ 0.2
HRVC	≤ 0.2
RVSN	≤ 0.2
YNLL	≤ 0.2
KMHS	≤ 0.2
DKML	≤ 0.2
TLGS	≤ 0.2
NKKY	≤ 0.2
TMDL	≤ 0.2
AIQL	≤ 0.2
VDTA	≤ 0.2

Variant	one-hybrid fitness for binding NBS DNA
QEPV	≤ 0.2
HASM	≤ 0.2
RWIE	≤ 0.2
AGWE	≤ 0.2
SWCF	≤ 0.2
AILG	≤ 0.2
RGCM	≤ 0.2
CDVT	≤ 0.2
YSTK	≤ 0.2
RADK	≤ 0.2
EAVR	≤ 0.2
TWDV	≤ 0.2
INQR	≤ 0.2
FHKT	≤ 0.2
VLGT	≤ 0.2
RCCI	≤ 0.2
NPPA	≤ 0.2
PRVT	≤ 0.2
